The campaign covered roughly 2,200 compounds. Fewer than 10 were called active. This is one part of the list. The source made no clear call on entries shown without one.

The experiment has as its target GTPase KRas (Homo sapiens) (UniProt P01116). Nature of the experiment: Covalent labelling of cysteine mutants by fragments, read by mass spectrometry (AID 2202238). Set-up: protein at 5 µM with 500 µM competing thiol for 1.5 h. Particulars: KRAS G12D cysteine mutants, disulfide tethering, MALDI-TOF labeling; stronger effect = higher value; H27C mutant labeling; fragment at 500 µM.
Sequence of UniProt P01116 (P01116 whole entry, looked up, the tested form may be a part): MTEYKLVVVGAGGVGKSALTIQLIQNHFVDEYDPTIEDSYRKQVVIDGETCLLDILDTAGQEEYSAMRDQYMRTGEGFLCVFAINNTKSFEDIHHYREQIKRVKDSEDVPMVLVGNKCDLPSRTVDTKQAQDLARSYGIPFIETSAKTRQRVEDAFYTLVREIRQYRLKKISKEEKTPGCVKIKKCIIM
As for `COc1cccc(C2C(c3ccccc3)CCN2C(=O)CCS)c1` (stereo not given), the percent labeling amounted to 24.3%.

`O=C(NCCS)c1ccnn1CCC(F)(F)F`: the percent labeling is 35.4%.

`O=C(NCCS)C1(c2ccc(Cl)cc2)CCCC1` returned a percent labeling of 29%.

As for `CN(C(=O)C1CCCN(C(=O)CCS)C1)c1ccccn1` (stereo not given), the percent labeling is 41.8%.

As to `O=C(CCS)NCc1n[nH]c(=O)n1C1CC1`, the percent labeling turned out to be 35.5%.

`Cc1cnn(-c2ccc(C(=O)NCCS)cc2)c1` yielded a percent labeling of 19.2%.

The compound `O=C(CCS)Nc1cccc(-n2nn[nH]c2=O)c1` gave a percent labeling of 20.5%.

`O=C(CCS)NCCOc1ccc(Cl)c(Cl)c1` returned a percent labeling of 35.7%.

For the compound `O=C(CCS)Nc1cnn(-c2ncccc2Cl)c1`, the percent labeling turned out to be 44%.

`O=C(NCCS)c1sccc1-n1ccnn1` registered a percent labeling of 42.9%.

`Cc1c(NC(=O)CCS)c(=O)n(C2CCCCC2)n1C` displayed a percent labeling of 29.7%.

`CCC1(C(=O)NCCS)CCN(C(=O)c2ccccc2)CC1`: the percent labeling is 35.5%.

The compound `O=C(CCS)NC(Cn1ccnc1)c1ccccc1` (stereo not given) came in with a percent labeling of 36.8%.

Take `Cc1nc(N2CCOCC2)sc1CN(CC1CN(C)CCO1)C(=O)CCS` (stereo not given): the percent labeling worked out at 33.5%.

`O=C(CCS)NCCCN1C(=O)NC2(CCC2)C1=O`: the percent labeling was 34.5%.

On to `Cn1c(CNC(=O)CCS)nnc1C1CC1`, for which the percent labeling is 27.8%.

Take `O=C(CCS)N1CCC2(CC1)CC2c1nc(-c2cccc(Cl)c2)no1` (stereo not given): the percent labeling was 33.4%.

Turning to `O=C(Cc1cnn(-c2ccccc2)c1)NCCS`, the percent labeling is 27.7%.

For the compound `CCC(C)C(NC(=O)Nc1cc(C)ccc1C)C(=O)NCCS` (stereo not given), the percent labeling was determined as 8.4%.

On to `CN(CC(=O)NCCS)c1ccc(C#N)cc1F`, for which the percent labeling is 33%.

Compound `O=C(CCS)Nc1ccc2c(n1)OCCO2` registered a percent labeling of 48.2%.

`N#CC1CN(C(=O)CCS)CC12C(=O)Nc1ccccc12` (stereo not given) gave a percent labeling of 47.4%.

In turn, `O=C(CCS)NCCNC(=O)c1ccc(F)cc1` came in with a percent labeling of 29.4%.

`O=C(NCCS)c1c(Cl)cccc1OCC1CC1`: the percent labeling was found to be 28.2%.

`CCOc1cccc2[nH]c(C(=O)NCCS)cc12` gave a percent labeling of 33%.

`CN(C)Cc1nnc(C2CCCCN2C(=O)CCS)o1` (stereo not given): the percent labeling was determined as 36.6%.

In the case of `O=C(NCCS)C(c1ccccc1)n1sc2ccccc2c1=O` (stereo not given), the percent labeling was 29.2%.

In turn, `O=C(CCCc1ccc2c(c1)OCCCO2)NCCS` gave a percent labeling of 37.4%.

The compound `O=C(CCS)Nc1ccnn1Cc1ccc(Br)s1` registered a percent labeling of 42.2%.

`CCN1C(=O)CO[C@H](C(=O)NCCS)[C@H]1c1ccccc1` had a percent labeling of 28.4%.

In turn, `CCC(C)C(=O)N1Cc2ccccc2CC1C(=O)NCCS` (stereo not given) showed a percent labeling of 23.4%.

In turn, `CCc1nnc(NC(=O)C(C)C(C)NC(=O)CCS)s1` (stereo not given) returned a percent labeling of 35.9%.

On to `O=C(Cc1cc(Cl)cc2c1OCC2)NCCS`, for which the percent labeling came out at 30.4%.

The compound `O=C(NCCS)C1CCCn2cc(C(F)(F)F)nc21` (stereo not given) displayed a percent labeling of 34.7%.

The compound `O=C(NCCS)C1(C2CCOCC2)CC1(F)F` (stereo not given) had a percent labeling of 23.9%.

`CCc1nc(-c2ccc(C(=O)NCCS)cc2)n[nH]1` came in with a percent labeling of 42.6%.

Turning to `O=C(CCS)N1CCC(CCN2CCCS2(=O)=O)CC1`, the percent labeling was 46.8%.

The compound `CCn1nccc1[C@@H]1OCC[C@H]1C(=O)NCCS` showed a percent labeling of 26.1%.

In the case of `O=C(CCS)N1CCn2c(Cc3ccccc3F)nnc2C1`, the percent labeling amounted to 36.1%.

Take `O=C(Cc1ccc(OCc2ccccn2)cc1)NCCS`: the percent labeling turned out to be 40.6%.

The compound `CC1(C(=O)NCCS)CCCN1C(=O)c1ccccc1` (stereo not given) yielded a percent labeling of 38%.

In turn, `N#Cc1nc(-c2ccco2)oc1N1CCC(C(=O)NCCS)CC1` showed a percent labeling of 23.1%.

Compound `O=C(NCCS)c1nccnc1-c1nc2ccccc2s1` gave a percent labeling of 29.1%.

Regarding `Cc1cc(C2(C(=O)NCCS)CCOCC2)on1`, the percent labeling was found to be 35%.

The compound `O=C(NCCS)C1CCN(c2ccccc2F)C1` (stereo not given) showed a percent labeling of 31.2%.

In turn, `Cn1ccc(C2CCN(C(=O)CCS)CC2)n1` came in with a percent labeling of 40.8%.

`O=C(NCCS)c1cnoc1-c1cccs1` came in with a percent labeling of 12.5%.

Turning to `O=C(CCCc1ccc2c(c1)CC(=O)N2)NCCS`, the percent labeling is 36.1%.

`O=C(CCS)NCc1nc(-c2ccc(F)cc2)n[nH]1` returned a percent labeling of 39.1%.

Compound `O=C(CCS)NCc1nc(C(F)(F)F)n2c1CCCC2` yielded a percent labeling of 40.6%.

For `O=C(NCCS)c1ccc(Oc2cc(Cl)ccc2Cl)cc1`, the percent labeling came to 35.8%.

For `CN(C)C1CC2(CC(NC(=O)CCS)C2)C1` (stereo not given), the percent labeling turned out to be 55.2%.

On to `O=C(NCCS)C(c1ccccc1)N1CCc2ccccc21` (stereo not given), for which the percent labeling came to 14.8%.

For the compound `Cc1c(CN(CC(F)F)C(=O)CCS)cnn1C`, the percent labeling was found to be 36.8%.

Compound `O=C(NC1(C(=O)NCCS)CCCC1)c1n[nH]c2ccccc12` showed a percent labeling of 26.8%.

In turn, `Cc1nc(CN2CCC(C(=O)NCCS)CC2)cs1` had a percent labeling of 46.4%.

Regarding `CCOc1cc2c(c3[nH]c(C(=O)NCCS)cc13)OC(C)C2` (stereo not given), the percent labeling worked out at 22.6%.

With `COC(=O)C1(C2=CCN(C(=O)CCS)CC2)CC1`, the percent labeling worked out at 27.3%.

As to `NC(=O)c1ccc(N2CCN(C(=O)CCS)CC2)nc1`, the percent labeling amounted to 50.9%.

Compound `O=C(NCCS)c1cc2cccc(Cl)c2o1` returned a percent labeling of 30.2%.

Regarding `CC1(C)C(=O)Nc2cc(C(=O)NCCS)ccc21`, the percent labeling came out at 50.1%.

`Cc1nc2cc(C(=O)NCCS)ccc2n1Cc1ccsc1` displayed a percent labeling of 32.6%.

Consider `O=C(Cc1ccccc1Br)NCCS`, for which the percent labeling turned out to be 35.7%.

`O=C(NCCS)C1CCc2nc[nH]c2C1` (stereo not given) had a percent labeling of 49.4%.

`O=C(CCS)NCCc1noc(COc2ccc(Cl)cc2)n1` displayed a percent labeling of 34.6%.

Regarding `O=C(NCCS)c1cccn1CCN1CCOCC1`, the percent labeling came out at 41.2%.

Turning to `O=C(NC(Cc1ccccc1)C(=O)NCCS)c1ccccc1` (stereo not given), the percent labeling was 23.1%.

For the compound `CN(C(=O)CNC(=O)CCS)C1CCCCC1`, the percent labeling was 24.9%.

`O=C(CCS)NCC12COCCN1C(=O)COC2` (stereo not given) had a percent labeling of 27.9%.

Compound `CN1CCN(c2nccnc2CNC(=O)CCS)CC1=O` came in with a percent labeling of 25.5%.

For the origin of these results see PubChem BioAssay AID2202238 (Ras Initiative Chemistry Research Team, Frederick National …, 2025).
